± gives the standard deviation of the averaged measurements. This is one part of the list.
These sequences were tested on PfAP2-I AP2 domain 3 (GST-tagged) (assay: gcPBM binding intensity (ln(normalized median fluorescence intensity)); higher = stronger DNA binding).
In short: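 In this array assay, P. falciparum DNA-binding domains with a GST tag, expressed in E. coli, were applied for 1 h to primer-extended double-stranded 36-bp intergenic genomic probes and negative controls on an Agilent 4 × 180k array. Bound protein was visualised with Alexa488 anti-GST antibody at 488 nm. Binding intensity is the highest Masliner-normalised natural-log median intensity across replicate spots of either probe orientation.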
For “TTTTTCACATTTCAGTGTACATTTTAATCATATATA [XGTACX_site915]”, the “gcPBM binding intensity (ln)” value was 8.04 ± 0.71. “CGACAAAAATTTTACAGTACAGTATAAACCTTTTTA [XGTACX_site290]” was tested, and the “gcPBM binding intensity (ln)” value was 7.62 ± 0.43. With “TACACACATTACAGATGTACATAAAATTAAAAAAAT [XGTACX_site1804]” the “gcPBM binding intensity (ln)” value was 8.05 ± 0.54. In the case of “TCAAAAAATATATTTGCACACTCAAAAAAAAAAAAA [CACACA_site860]”, the “gcPBM binding intensity (ln)” value is reported as 9.76 ± 0.55. For “TATATATATATAAATACATGCATATAATTAATCCAT [TGCATGCA_site400]”, the “gcPBM binding intensity (ln)” value was 8.99 ± 0.028. With “CTTTTATATGTCTAATGTACGGGCAATATAAATTTG [XGTACX_site8323]” the “gcPBM binding intensity (ln)” value was 7.91 ± 0.38. “CATATTGAATATTTAACACACATTTCGCTTAATTCA [CACACA_site2086]” was tested, and the “gcPBM binding intensity (ln)” value was 7.68 ± 0.47. For “ACACATTATAAAACTGTCGCTCATAAAGAAGAATGA [CACACA_negctrl_site999]”, the “gcPBM binding intensity (ln)” value was 7.77 ± 0.81. For “GCAACAAAAAATCAGACATGCATTTTAAAATGAATA [TGCATGCA_site846]”, the “gcPBM binding intensity (ln)” value was 7.4 ± 0.58. “GAATGAATTGTTATTAGTACACATGTGAATTATAAA [XGTACX_site6790]” was tested, and the “gcPBM binding intensity (ln)” value was 7.84 ± 0.45. In the case of “TATAAAAAAAAAATTTGTACATAATAATATATATAT [XGTACX_site2074]”, the “gcPBM binding intensity (ln)” value is reported as 8.88 ± 0.13. For “TTATATATAAAATACTGTACATTTAATTGATGGTTT [XGTACX_site2073]”, the “gcPBM binding intensity (ln)” value was 7.71 ± 0.39. With “TATATAAATTTAATAACACACATATAAAAATGAATT [CACACA_site2366]” the “gcPBM binding intensity (ln)” value was 7.61 ± 0.55. With “AAAAAGCAGGATTATACACACAAATATATATATGTT [CACACA_site1077]” the “gcPBM binding intensity (ln)” value was 7.51 ± 0.67. With “ATATGTTTACGTAAATGTACACGTCAGTATATTTCT [XGTACX_site8199]” the “gcPBM binding intensity (ln)” value was 7.96 ± 0.54. In the case of “ATATATATATAACATTGTACACACAAAGAAATAATA [XGTACX_site6440]”, the “gcPBM binding intensity (ln)” value is reported as 9.01 ± 0.11. For “TTTTATAATAAGTATGTAAAAATTATATATATATAT [CACACA_negctrl_site711]”, the “gcPBM binding intensity (ln)” value was 9.22 ± 0.18. In the case of “AACTTGTATATATACACACACACACTATCTTTTTTT [CACACA_site8601]”, the “gcPBM binding intensity (ln)” value is reported as 7.96 ± 0.81. For “ATTTTTTTTTTTTTTATTCCCCTTTCGAAAAAAACC [CACACA_negctrl_site1139]”, the “gcPBM binding intensity (ln)” value was 8.3 ± 0.54. In the case of “TCAAATAATAAGTATGCATGCTATATTTATATATAC [TGCATGCA_site920]”, the “gcPBM binding intensity (ln)” value is reported as 7.77 ± 0.76. With “AAACGTACATAATACACACACATGTATACCTATAAA [CACACA_site7051]” the “gcPBM binding intensity (ln)” value was 8.3 ± 0.35. “TACATTTTACTTGTTACACACATATAAAATTAACCA [CACACA_site2922]” was tested, and the “gcPBM binding intensity (ln)” value was 7.82 ± 0.5. In the case of “AGAAAAAAAAAAAGTACACACATATAATATATATAT [CACACA_site2973]”, the “gcPBM binding intensity (ln)” value is reported as 8.885 ± 0.078. In the case of “AGTTAATGAATAGGCACACATATATCTGTATAAATA [CACACA_site4448]”, the “gcPBM binding intensity (ln)” value is reported as 7.95 ± 0.57. With “ATGAATAAATAGGTCACACACAAATATATATAAATA [CACACA_site2416]” the “gcPBM binding intensity (ln)” value was 7.82 ± 0.59. With “TTGTTCGATATATGCACACAGTTTTGTTATTTTTCC [CACACA_site4972]” the “gcPBM binding intensity (ln)” value was 9.19 ± 0.37. For “CACTACACTGTTAATAGTACATATATTTAAAAAAAA [XGTACX_site7371]”, the “gcPBM binding intensity (ln)” value was 7.95 ± 0.42. For “AAAAGGTATAGAAACACACACACGTGAATATAGTTT [CACACA_site1905]”, the “gcPBM binding intensity (ln)” value was 7.49 ± 0.87. In the case of “CACACCCACCAACACACACACAAAAAAAAAAAGAAA [CACACA_site500]”, the “gcPBM binding intensity (ln)” value is reported as 8.045 ± 0.021. “ATATTTTATTTTAATACACACAAGTTATATAATCAC [CACACA_site780]” was tested, and the “gcPBM binding intensity (ln)” value was 7.96 ± 0.45. In the case of “AAAAAAAACGGACACACACACATAAATATATATAAA [CACACA_site4260]”, the “gcPBM binding intensity (ln)” value is reported as 8.03 ± 0.042. “ACATATGTTTTATGTAGTACTTATTTATTATTATAT [XGTACX_site7528]” was tested, and the “gcPBM binding intensity (ln)” value was 7.84 ± 0.47. “TACAAATTTATATAAAGTACAAAAAATAATAAAAAT [XGTACX_site7355]” was tested, and the “gcPBM binding intensity (ln)” value was 8.1 ± 0.52. With “AAAAAAAAAAAAAGTGCACACATAAAAATATGATCT [CACACA_site8090]” the “gcPBM binding intensity (ln)” value was 10.1 ± 0.27. In the case of “ATATTGTAGATATTGTGTACATATTTTACAACTTTT [XGTACX_site7621]”, the “gcPBM binding intensity (ln)” value is reported as 7.61 ± 0.42. With “TATGTACACCCATATACACACCTCTATAATATATAT [CACACA_site4563]” the “gcPBM binding intensity (ln)” value was 8.38 ± 0.18. “ACATCATATTAAGAAAGTACAAAAAGAGAACATATA [XGTACX_site1268]” was tested, and the “gcPBM binding intensity (ln)” value was 7.98 ± 0.61. With “AAACAAAATTTATTTCAAAGTTAATAATTTTTATGT [CACACA_negctrl_site232]” the “gcPBM binding intensity (ln)” value was 7.3 ± 0.57. With “TCATTAAAAACTAAAAGTACTCAATATTATGAACAT [XGTACX_site7807]” the “gcPBM binding intensity (ln)” value was 7.8 ± 0.42. “TAAAAAAATAAATATACACACATATATATATATATA [CACACA_site1089]” was tested, and the “gcPBM binding intensity (ln)” value was 9.44 ± 0.59. For “TGTAGAAATGGGTGCACACACATATAAAATCTATAT [CACACA_site7224]”, the “gcPBM binding intensity (ln)” value was 10.4 ± 0.59. For “GGATTTATTATATATACACACATACAGATATATATA [CACACA_site5222]”, the “gcPBM binding intensity (ln)” value was 7.88 ± 0.38. “CATATATATTTGTTCACACACACACTAGAAAAAAAA [CACACA_site5380]” was tested, and the “gcPBM binding intensity (ln)” value was 8 ± 0.33. With “ATAAAAAATAAAATAAATAAAAAATATTTACCCTTA [TGCATGCA_negctrl_site396]” the “gcPBM binding intensity (ln)” value was 7.21 ± 0.35. With “AATATTTTTTAAATGTGTACATAGGTATAGCACACA [XGTACX_site8690]” the “gcPBM binding intensity (ln)” value was 8.93 ± 0.26. “AATTATTCTCTTTTCATTTGAACAATATGCTTAAAA [CACACA_negctrl_site995]” was tested, and the “gcPBM binding intensity (ln)” value was 7.89 ± 0.73. In the case of “GACTGCACTTTAAGCACACAAATATATTTTTTTTAT [CACACA_site1249]”, the “gcPBM binding intensity (ln)” value is reported as 9.58 ± 0.17. In the case of “ACACATTCGAAAAATTGTACATATATAACAGAATAT [XGTACX_site7106]”, the “gcPBM binding intensity (ln)” value is reported as 7.91 ± 0.26. “AGTCATATAAATAGTAGTACTGTGTGTGAAGAAAAA [XGTACX_site5056]” was tested, and the “gcPBM binding intensity (ln)” value was 8.14 ± 0.68. “ACAAATATGAGAAATTGTACATATAATAAAATAGTA [XGTACX_site2573]” was tested, and the “gcPBM binding intensity (ln)” value was 7.64 ± 0.5. In the case of “ATATTAGTCGAATGATGTACACACATACAAAACATT [XGTACX_site8613]”, the “gcPBM binding intensity (ln)” value is reported as 7.95 ± 0.47. In the case of “ATCAAATTTGGACATGCATGTGTGTGTAAAACCATG [TGCATGCA_site309]”, the “gcPBM binding intensity (ln)” value is reported as 8.52 ± 0.41. “TTCTTCAATAATAAGTGTACATATGCATACATTATA [XGTACX_site1502]” was tested, and the “gcPBM binding intensity (ln)” value was 8.12 ± 0.33. In the case of “AATTAAAAAATTTATGCACACTTTAAAAAAAAAAAA [CACACA_site5962]”, the “gcPBM binding intensity (ln)” value is reported as 10.1 ± 0.46. In the case of “ATAATAAAATAAGAAGCACACAAATATTATATATAA [CACACA_site9319]”, the “gcPBM binding intensity (ln)” value is reported as 7.94 ± 0.52. “GATATGATATGATATGCATGTAACAAATTTTTTTAA [TGCATGCA_site268]” was tested, and the “gcPBM binding intensity (ln)” value was 8.37 ± 0.85.

Reference: the supplement of paper PMC11417369
